{
  "source": "the supplement of paper PMC3656093",
  "note": "± gives the standard deviation of the averaged measurements. The full ranking holds about 1,900 compounds; the median of “CD40L-induced NF-kB luciferase activity, plate-corrected, relative to DMSO (0) and IKK inhibitor VII (-100) controls” is about 0.032, and the lowest 2% start at about -26. Some of the results follow.",
  "data": [
    {"test_system": "BL2-NFkB-Luc", "test": "CD40L-induced NF-kB luciferase activity, plate-corrected, relative to DMSO (0) and IKK inhibitor VII (-100) controls (% normalized activity); higher = more NF-kB reporter activity (less inhibition)", "conditions": "9.4 µM; stimulus: tCD40L 64 ng/ml; 4.5 h", "experimental": "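BL2 B cells with a stable NF-kB response-element luciferase reporter (BL2-NFkB-Luc), 384-well. Cells were pre-incubated with compound at 9.4 uM for 1 h at 37 C, then stimulated with 64 ng/ml trimerized CD40L for 4.5 h; luciferase was read with Steady-Glo. Signal was normalised per plate in Genedata (median DMSO neutral control = 0, median IKK inhibitor VII at 50 uM = -100) with Assay Median plate-pattern correction; duplicate plates.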", "values": [
      {"smiles": "CC(=O)OCC1OC(n2ccc(=O)[nH]c2=O)C(O)C1O", "note": "(centres undefined)", "CD40L-induced NF-kB luciferase activity": "3.06 ± 0.22"},
      {"smiles": "CC(NCCc1ccc(O)cc1)C(O)c1ccc(O)cc1", "note": "(centres undefined)", "CD40L-induced NF-kB luciferase activity": "0.0595 ± 4.6"},
      {"smiles": "COC(=O)C1=NN(C(=O)c2cccc(Br)c2)C(O)(c2ccc(Cl)cc2)C1", "note": "(centres undefined)", "CD40L-induced NF-kB luciferase activity": "-3.91 ± 2.9"},
      {"smiles": "CC12CCC(C(=O)Nc3ccccc3Br)(CC1=NO)C2(C)C", "note": "(centres undefined)", "CD40L-induced NF-kB luciferase activity": "2.02 ± 4"},
      {"smiles": "Cc1ccc2c(CN3CCN(Cc4ccc5c(c4)OCO5)CC3)cc(=O)oc2c1C", "CD40L-induced NF-kB luciferase activity": "-2.17 ± 9.3"},
      {"smiles": "Cc1nc2ccccc2n1CC(O)Cn1c2ccccc2c2ccccc21", "note": "(centres undefined)", "CD40L-induced NF-kB luciferase activity": "-1.02 ± 0.85"},
      {"smiles": "CCC1(c2ccccc2)NC(=S)N(c2ccc(C)c(C)c2)N1", "note": "(centres undefined)", "CD40L-induced NF-kB luciferase activity": "-4.42 ± 11"},
      {"smiles": "CC1(C)CC(=O)C2=C(C1)c1c(ccc3ccccc13)NC2c1ccco1", "note": "(centres undefined)", "CD40L-induced NF-kB luciferase activity": "45.7 ± 2.5"},
      {"smiles": "Cc1ccc2[nH]c3c(c2c1)CCNC3=O", "CD40L-induced NF-kB luciferase activity": "-5.41 ± 0.7"},
      {"smiles": "CCOC(=O)C1=C(C)NC(C)=C(C(=O)OC)C1c1cccc(Cl)c1Cl", "note": "(centres undefined)", "CD40L-induced NF-kB luciferase activity": "-0.0605 ± 7.1"},
      {"smiles": "Cc1nc2sccn2c(=O)c1CCN1CCC(=C(c2ccc(F)cc2)c2ccc(F)cc2)CC1", "CD40L-induced NF-kB luciferase activity": "-12.2 ± 1.6"},
      {"smiles": "CCOc1ccc(C(=O)NC(C)C2COc3ccccc3O2)cc1", "note": "(centres undefined)", "CD40L-induced NF-kB luciferase activity": "18.5 ± 5.3"},
      {"smiles": "C[C@H](CCC(=O)O)[C@H]1CC[C@H]2[C@@H]3C(=O)C[C@@H]4CC(=O)CC[C@]4(C)[C@H]3CC(=O)[C@]12C", "CD40L-induced NF-kB luciferase activity": "-0.821 ± 1.5"},
      {"smiles": "CCSC(=O)CCCCCCCCCCCO", "CD40L-induced NF-kB luciferase activity": "10.2 ± 2.4"},
      {"smiles": "Cc1ncoc1C(=O)N1CCCC(C(=O)c2ccc(-c3ccccc3)c(F)c2)C1", "note": "(centres undefined)", "CD40L-induced NF-kB luciferase activity": "-1.58 ± 0.54"},
      {"smiles": "COc1ccc(-c2[nH]ncc2CN(C)C(C)c2ccon2)c(OC)c1", "note": "(centres undefined)", "CD40L-induced NF-kB luciferase activity": "-5.7 ± 5.7"},
      {"smiles": "C=CCc1ccc(OCC(O)COc2ccc(CC=C)cc2OC)c(OC)c1", "CD40L-induced NF-kB luciferase activity": "6.35 ± 7.1"},
      {"smiles": "O=C(O)c1cnccn1", "CD40L-induced NF-kB luciferase activity": "-0.082 ± 2.6"},
      {"smiles": "CN1CCN2c3ccccc3Cc3ccccc3C2C1", "note": "(centres undefined)", "CD40L-induced NF-kB luciferase activity": "0.392 ± 0.068"},
      {"smiles": "COc1ccc(/C=C/C(=O)c2cc3cccc(OC)c3oc2=O)cc1", "CD40L-induced NF-kB luciferase activity": "4.63 ± 2.5"},
      {"smiles": "CCN(CC)Cc1c[nH]c2c(C(=O)OC)cccc12", "CD40L-induced NF-kB luciferase activity": "2.98 ± 0.3"},
      {"smiles": "O=C1c2cccc3cccc(c23)C(=O)N1c1ccccn1", "CD40L-induced NF-kB luciferase activity": "3.96 ± 0.69"},
      {"smiles": "O=C(O)CCC(=O)c1ccc(-c2ccccc2)cc1", "CD40L-induced NF-kB luciferase activity": "39.5 ± 4.7"},
      {"smiles": "Cc1cc(C)c(NC(=O)NC(=O)C(Cl)(Cl)Cl)c(C)c1", "CD40L-induced NF-kB luciferase activity": "-1.23 ± 3.9"},
      {"smiles": "CC(=O)N=c1sc(S(N)(=O)=O)nn1C", "CD40L-induced NF-kB luciferase activity": "-0.0005 ± 4.8"},
      {"smiles": "CC(=O)N(CCC1(C(C)C)CCOC(C)(C)C1)Cc1ccco1", "note": "(centres undefined)", "CD40L-induced NF-kB luciferase activity": "-4.91 ± 6.3"},
      {"smiles": "CC(C)NNC(=O)c1ccncc1", "CD40L-induced NF-kB luciferase activity": "-8.05 ± 8.5"},
      {"smiles": "COc1ccc2[nH]cc(C3N4CC5(C)CN3CC(C)(C4)C5=O)c2c1", "note": "(centres undefined)", "CD40L-induced NF-kB luciferase activity": "2.08 ± 1.7"},
      {"smiles": "Cc1ccccc1C(=O)NNc1ncnc2c1cnn2C", "CD40L-induced NF-kB luciferase activity": "-2.14 ± 2.1"},
      {"smiles": "CCOc1ccc2[nH]c3c(=O)n(CCc4ccc(OC)cc4)cnc3c2c1", "CD40L-induced NF-kB luciferase activity": "-2.8 ± 3.9"},
      {"smiles": "COc1c2occc2c(OC)c2c(=O)cc(C(F)(F)C(F)(F)F)oc12", "CD40L-induced NF-kB luciferase activity": "0.266 ± 3"},
      {"smiles": "COc1ccc(C(CC(=O)N2CCOCC2)C(C)C)cc1", "note": "(centres undefined)", "CD40L-induced NF-kB luciferase activity": "4.41 ± 7.1"},
      {"smiles": "CC(=O)[C@H]1[C@H](C#N)C[C@H]2[C@@H]3CC=C4C[C@@H](O)CC[C@]4(C)[C@H]3CC[C@@]21C", "CD40L-induced NF-kB luciferase activity": "-2.58 ± 4.3"},
      {"smiles": "OC(CCN1CCCCC1)(c1ccccc1)c1ccccc1", "CD40L-induced NF-kB luciferase activity": "0.773 ± 2.9"},
      {"smiles": "N=c1ccn(CC(=O)NC(N)=O)c2ccccc12", "CD40L-induced NF-kB luciferase activity": "-1.5 ± 3.9"},
      {"smiles": "CCC(C)NCCOc1ccccc1C", "note": "(centres undefined)", "CD40L-induced NF-kB luciferase activity": "-0.253 ± 4.2"},
      {"smiles": "COc1ccc(/C=C2\\CC/C(=C\\c3ccc(OC)c(OC)c3)C2=O)cc1OC", "CD40L-induced NF-kB luciferase activity": "24 ± 2.5"},
      {"smiles": "COc1cc2c(cc1O)CCN(C(=O)c1ccco1)C2C", "note": "(centres undefined)", "CD40L-induced NF-kB luciferase activity": "0.059 ± 5.1"},
      {"smiles": "CSCC[C@H](NC(=O)OC(C)(C)C)C(=O)N1CCC(C(=O)N[C@@H](C)C(=O)O)CC1", "CD40L-induced NF-kB luciferase activity": "-0.66 ± 0.41"},
      {"smiles": "CC(C)c1cc(=O)oc2c3c4c(cc12)CCCN4CCC3", "CD40L-induced NF-kB luciferase activity": "2.28 ± 2"},
      {"smiles": "CN(C)c1cc(NC(=O)CN2CCOCC2)c2ccccc2n1", "CD40L-induced NF-kB luciferase activity": "3.35 ± 23"},
      {"smiles": "Cc1nc2c(c3c1[nH]c1ccccc13)C(=O)CC(C)(C)C2", "CD40L-induced NF-kB luciferase activity": "-0.509 ± 4.8"},
      {"smiles": "CC(C)=CCCC1=CCC2C(=O)NNC(=O)C2C1", "note": "(centres undefined)", "CD40L-induced NF-kB luciferase activity": "-2.77 ± 2.9"},
      {"smiles": "CC(C)(C)OC(=O)COc1cc(OCC(=O)OC(C)(C)C)c2c(=O)cc(-c3ccccc3)oc2c1", "CD40L-induced NF-kB luciferase activity": "-1.69 ± 2"},
      {"smiles": "Cc1ccc(C2=NOC(=O)/C2=C\\C=C\\c2ccccc2)cc1", "CD40L-induced NF-kB luciferase activity": "7.89 ± 1.7"},
      {"smiles": "O=C(COc1cc(O)c2c(=O)c3ccccc3oc2c1)OCc1ccccc1", "CD40L-induced NF-kB luciferase activity": "-8.27 ± 14"},
      {"smiles": "CCOc1ccc(CC2CCC(=O)NC2=O)cc1", "note": "(centres undefined)", "CD40L-induced NF-kB luciferase activity": "4.06 ± 5.1"},
      {"smiles": "Cn1cc(CN2CCC(C(=O)N3CCCCC3)CC2)c(-c2ccccc2F)n1", "CD40L-induced NF-kB luciferase activity": "1.51 ± 1.2"},
      {"smiles": "CCOC(=O)C1=C(C)N[C@@]2(O)c3ccccc3C(=O)[C@@]12O", "CD40L-induced NF-kB luciferase activity": "11.4 ± 1.2"},
      {"smiles": "CC(=O)Oc1ccc(C(=O)O)cc1OC(C)=O", "CD40L-induced NF-kB luciferase activity": "0.925 ± 0.045"},
      {"smiles": "COc1ccc(NC(=O)C2OC3OC(C)(C)OC3C3OC(C)(C)OC23)cc1", "note": "(centres undefined)", "CD40L-induced NF-kB luciferase activity": "1.04 ± 6.2"},
      {"smiles": "O=C(O)c1cc2cc(F)ccc2[nH]1", "CD40L-induced NF-kB luciferase activity": "-4.02 ± 4"},
      {"smiles": "COc1ccc(C(=O)Nc2ccccc2C(=O)NC(Cc2c[nH]c3ccccc23)C(=O)O)cc1", "note": "(centres undefined)", "CD40L-induced NF-kB luciferase activity": "-0.217 ± 2"},
      {"smiles": "Cc1cccc(N(C)C(=S)Oc2ccc3ccccc3c2)c1", "CD40L-induced NF-kB luciferase activity": "0.54 ± 2.5"}
    ]}
  ]
}
